# Measurements as given in patent US20140308285A1 (Amgen, published 2014).
# B1: […].5 (bispecific antibody)
# chain 1: [omitted - about 120 residues]ASTKGPQVQLQESGPGLVKPSETLSLTCTVSGGSIISHYWSWIRQPPGKGLEWIGYIYYSGSTNYNPSLKSRVTISVDTSKNQFSLKLTSVTAADTAVYYCARDGWSAFDYWGQGTLVTVSSASTKGPSVFPLAPCSRSTSESTAALGCLVKDYFPEPVTVSWNSGALTSGVHTFPAVLQSSGLYSLSSVVTVPSSNFGTQTYTCNVDHKPSNTKVDKTVGGGGSAAAVPRDLEVVAATPTSLLISWDAPHHGVAYYRITYGETGGNSPVQEFTVPGSKSTATISGLKPGVDYTINVYAVLAYPRGYPLSKPISINYRTDYKDDDDKGSSHHHHHH
# chain 2: not shown
# notes: second chain: two variable regions, CL; also called anti-MSLN/anti-CD3 heterodimeric bispecific antibody; anti-MSLN/CD3ε heterodimeric bispecific antibody
# How the values were obtained:
# [1] = biological target: T1, human CD3 (CD3 epsilon chain) on human T cells (human, UniProt P07766); test: FACS on isolated human T cells, FITC anti-human light chain secondary antibody
# T1 construct: The assay used isolated human T cells, which carry CD3 as part of the TCR-CD3 complex; also called CD3ε
# [2] = biological target: T2, human mesothelin (MSLN) on Ovcar-8 cells (human, UniProt Q13421 296-598); test: cell-based or functional assay
# [3] = biological target: T2, human mesothelin (MSLN) on Ovcar-8 cells; test: cell-based or functional assay; remark: listed apart in the source
# T2 sequence (Q13421 other isoform, or with tags, fused parts or gaps limits assumed): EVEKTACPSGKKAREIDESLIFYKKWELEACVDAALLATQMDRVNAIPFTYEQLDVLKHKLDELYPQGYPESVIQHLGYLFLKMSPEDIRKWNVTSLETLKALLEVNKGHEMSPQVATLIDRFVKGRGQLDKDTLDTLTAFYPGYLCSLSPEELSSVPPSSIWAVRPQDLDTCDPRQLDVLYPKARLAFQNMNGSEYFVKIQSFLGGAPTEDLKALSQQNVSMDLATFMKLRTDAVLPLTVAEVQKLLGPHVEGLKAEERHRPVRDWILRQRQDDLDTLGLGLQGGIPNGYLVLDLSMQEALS
# T1 sequence (P07766 22-207 limits assumed): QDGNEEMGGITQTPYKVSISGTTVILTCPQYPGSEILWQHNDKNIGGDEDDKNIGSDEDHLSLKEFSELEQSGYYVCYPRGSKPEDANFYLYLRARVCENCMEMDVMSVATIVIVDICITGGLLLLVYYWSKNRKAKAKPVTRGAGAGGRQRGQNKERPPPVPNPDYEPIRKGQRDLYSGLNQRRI
binder,measurement,setting,value
B1,FACS binding (geometric mean),[1],220
same,"Human TDCC EC50 (pM), Ovcar-8 cells with human T cells",[2],0.12 pM
same,"Human TDCC EC50 (pM), Ovcar-8 cells with human T cells",[3],0.12 pM

# Read-outs that look alike come from different tables or passages of the source.
